The other results are listed elsewhere or left out.
B1: PhoQ; a variant is named by its letters at X, in order, P23837 (parent)
chain: MKKLLRLFFPLSLRVRFLLATAAVVLVLSLAYGMVALIGYSVSFDKTTFRLLRGESNLFYTLAKWENNKLHVELPENIDKQSPTMTLIYDENGQLLWAQRDVPWLMKMIQPDWLKSNGFHEIEADVNDTSLLLSGDHSIQQQLQEVREDDDDAEMTHSVAVNVYPATSRMPKLTIVVVDTIPVELKSSYMVWSWFIYVLSANLLLVIPLLWVAAWWSLRPIEALAKEVRELEEHNRELLNPATTRELTSLVRNLNRLLKSERERYDKYRTTLTDLTHSLKTPLXXLQXXLRSLRSEKMSVSDAEPVMLEQISRISQQIGYYLHRASMRGGTLLSRELHPVAPLLDNLTSALNKVYQRKGVNISLDISPEISFVGEQNDFVEVMGNVLDNACKYCLEFVEISARQTDEHLYIVVEDDGPGIPLSKREVIFDRGQRVDTLRPGQGVGLAVAREITEQYEGKIVAGESMLGGARMEVIFGRQHSAPKDE

Variants of: B1
Test: enrichment ratio after two sorts for PhoP signalling (ratio (wild type AVST 3.29)); higher = more functional
Settings: with PhoP (E. coli)

Variant	enrichment ratio
TPSL	≤ 0.25
FRYF	≤ 0.25
QKDN	≤ 0.25
WDKA	≤ 0.25
IIWA	≤ 0.25
VYQK	≤ 0.25
PEHK	≤ 0.25
VKIM	≤ 0.25
HIMK	≤ 0.25
QYWT	≤ 0.25
IVAA	≤ 0.25
KYWC	≤ 0.25
KSSH	≤ 0.25
DILN	≤ 0.25
KAQN	≤ 0.25
MMDN	≤ 0.25
SWQD	≤ 0.25
NVIW	≤ 0.25
NGFH	≤ 0.25
HMIP	≤ 0.25
QNEP	≤ 0.25
KNQA	≤ 0.25
TKNM	31.9
NSSQ	≤ 0.25
SALE	6.77
ILYT	≤ 0.25

Variant	enrichment ratio
TADC	0.543
KQGG	≤ 0.25
KCEQ	≤ 0.25
GLSK	≤ 0.25
DGSQ	≤ 0.25
GRAS	≤ 0.25
EKRP	≤ 0.25
GSGT	≤ 0.25
IAIF	≤ 0.25
WQPR	≤ 0.25
ASVK	0.907
QLIK	≤ 0.25
ATIH	25.3
FGYC	≤ 0.25
WRLD	≤ 0.25
PKRP	≤ 0.25
AMIS	≤ 0.25
DDAN	≤ 0.25
LGQY	≤ 0.25
KPAI	≤ 0.25
LADP	≤ 0.25
RGPR	≤ 0.25
YTVV	0.375
SKPR	≤ 0.25
QFIY	≤ 0.25
YCCR	≤ 0.25

Variant	enrichment ratio
NFGG	≤ 0.25
YFPQ	≤ 0.25
NHVF	≤ 0.25
SGTC	8.42
HPYH	≤ 0.25
TIVP	≤ 0.25
DSFN	≤ 0.25
PIKH	≤ 0.25
TWQR	≤ 0.25
PCMI	≤ 0.25
NMRA	≤ 0.25
PRQW	≤ 0.25
GLKN	≤ 0.25
FWQR	≤ 0.25
EVHH	≤ 0.25
WKMR	≤ 0.25
RQVY	≤ 0.25
RQMD	≤ 0.25
EIAF	≤ 0.25
DPTS	≤ 0.25
VPCR	≤ 0.25
SQCS	14.7
IVLW	≤ 0.25
EGYL	≤ 0.25
FVTR	0.369
VGWQ	1.18

Variant	enrichment ratio
GNCS	7.94
NPRG	≤ 0.25
NYTW	≤ 0.25
TEAF	13.8
PCQN	≤ 0.25
GNLQ	5.83
FKIQ	≤ 0.25
PYYS	≤ 0.25
PATT	≤ 0.25
RVRC	≤ 0.25
IPPD	≤ 0.25
LVES	≤ 0.25
YLNS	≤ 0.25
ANNH	4.48
VNYT	≤ 0.25
ATRR	≤ 0.25
FKEF	≤ 0.25
YNFL	≤ 0.25
LFRH	≤ 0.25
PCMT	≤ 0.25
TSPE	≤ 0.25
AFRL	≤ 0.25
QPTP	≤ 0.25
RLSR	≤ 0.25
VTGM	≤ 0.25
IGPR	≤ 0.25

Variant	enrichment ratio
YALQ	4.04
KGPE	≤ 0.25
DCQV	≤ 0.25
WVFN	≤ 0.25
WEVP	≤ 0.25
KSVG	≤ 0.25
TNEL	≤ 0.25
HMDD	≤ 0.25
AYKT	≤ 0.25
WCRW	≤ 0.25
NISM	0.899
EDHY	≤ 0.25
LMSE	≤ 0.25
KSYY	≤ 0.25
HLCT	≤ 0.25
RFDR	≤ 0.25
DQDG	≤ 0.25
WMRP	≤ 0.25
QWVY	≤ 0.25
YPQH	≤ 0.25
NQDC	≤ 0.25
SHNT	1.57
GYPQ	≤ 0.25
FCVL	0.336
YGFD	≤ 0.25
VFIQ	≤ 0.25

Variant	enrichment ratio
LVMN	≤ 0.25
NYWF	≤ 0.25
LTQW	≤ 0.25
RGSD	≤ 0.25
MKTP	≤ 0.25
VMNM	≤ 0.25
YLWL	≤ 0.25
PRNA	≤ 0.25
IVED	≤ 0.25
IYAQ	≤ 0.25
LTLM	2.03
RIPV	≤ 0.25
LKVG	≤ 0.25
DYHW	≤ 0.25
KSAI	≤ 0.25
TPYN	≤ 0.25
SQFI	≤ 0.25
HLPR	≤ 0.25
IHEV	≤ 0.25
KTQE	≤ 0.25
RDCI	≤ 0.25
QFFM	≤ 0.25
IHEG	≤ 0.25
